Experimental findings from publication PMC4336329 (PLoS ONE, 2015) are described below.

Among all 310,000 compounds or so, about 2,200 (0.71%) showed an effect of 50% or more. The effect is printed as a negative number. This is one part of the list.

The target in this test is human ether-à-go-go-related gene (hERG) potassium channel (human, UniProt Q12809). As to the kind of experiment: primary screen, population patch clamp on CHO cells stably expressing hERG.
human ether-à-go-go-related gene (hERG) potassium channel, sequence (Q12809 whole entry, looked up): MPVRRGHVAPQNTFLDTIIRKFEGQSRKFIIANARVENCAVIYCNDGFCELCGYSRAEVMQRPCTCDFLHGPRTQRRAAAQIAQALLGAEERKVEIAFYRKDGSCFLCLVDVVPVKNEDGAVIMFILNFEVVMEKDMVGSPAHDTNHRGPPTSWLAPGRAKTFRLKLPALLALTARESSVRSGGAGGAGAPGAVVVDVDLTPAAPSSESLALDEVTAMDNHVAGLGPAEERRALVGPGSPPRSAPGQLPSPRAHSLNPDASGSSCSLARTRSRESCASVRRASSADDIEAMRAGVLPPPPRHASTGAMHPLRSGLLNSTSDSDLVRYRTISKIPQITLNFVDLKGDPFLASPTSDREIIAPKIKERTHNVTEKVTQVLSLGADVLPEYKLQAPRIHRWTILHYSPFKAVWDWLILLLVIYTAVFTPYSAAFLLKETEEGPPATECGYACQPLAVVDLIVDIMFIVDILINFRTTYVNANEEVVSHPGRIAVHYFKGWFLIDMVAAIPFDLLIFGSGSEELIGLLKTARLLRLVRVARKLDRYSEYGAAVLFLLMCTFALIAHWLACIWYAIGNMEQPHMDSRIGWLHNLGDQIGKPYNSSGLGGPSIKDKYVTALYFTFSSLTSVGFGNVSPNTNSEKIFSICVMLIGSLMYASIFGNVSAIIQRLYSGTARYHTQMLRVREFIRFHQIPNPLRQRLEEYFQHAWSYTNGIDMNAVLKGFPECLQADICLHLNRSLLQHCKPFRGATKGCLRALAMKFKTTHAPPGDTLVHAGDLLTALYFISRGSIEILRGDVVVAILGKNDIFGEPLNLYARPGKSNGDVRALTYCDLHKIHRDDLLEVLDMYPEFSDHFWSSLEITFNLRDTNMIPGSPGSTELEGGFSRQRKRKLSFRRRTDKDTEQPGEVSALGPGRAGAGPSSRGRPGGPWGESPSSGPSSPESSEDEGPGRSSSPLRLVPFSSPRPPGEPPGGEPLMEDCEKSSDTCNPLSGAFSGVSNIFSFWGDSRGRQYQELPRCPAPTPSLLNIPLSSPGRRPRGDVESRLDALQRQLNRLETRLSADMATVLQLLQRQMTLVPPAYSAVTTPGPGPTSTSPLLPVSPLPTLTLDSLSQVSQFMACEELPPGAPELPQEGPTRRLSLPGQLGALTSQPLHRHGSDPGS
For the compound `CC(=O)c1c(C)[nH]c(C(=O)Nc2ccc(C)c(S(=O)(=O)N(C)C)c2)c1C`, the “hERG current change (%, negative = inhibition) at 1uM” value is -9.05%.
Then `O=C(CCC1CCCC1)NCCCNC(=O)CCC1CCCC1`, with 10.6%.
Turning to `Cc1cc(NC(=O)c2n[nH]c(=O)c3ccccc23)ccc1Br`, the “hERG current change (%, negative = inhibition) at 1uM” value is recorded as 9.97%.
Then `O=C(O)c1cc(O)ccc1NC(=O)C(c1ccccc1)c1ccccc1`, with 10.4%; and `CCOc1ccc(CCNC(=O)CCCn2c(=O)c3cccn3c3cccnc32)cc1OCC`, with -6.56%.
Then `COc1ccc(/C=N/NC(=O)c2ccccc2OC)cc1COc1ccccc1[N+](=O)[O-]`, with 8.25%; and `O=C(CCNc1n[nH]c(=O)[nH]c1=O)N/N=C/c1ccccc1Br`, with 8.78%; and `CCC(C)c1ccccc1NC(=O)COC(=O)c1ccc2[nH]c3c(c2c1)CCCC3` (centres unmarked), with -2.95%.
Then `Cc1ccc(S(=O)(=O)c2ccc(-n3nc(C)cc3N)cc2)cc1`, with 9.92%; and `COc1ccccc1-n1nc(C(=O)Nc2ccc3c(c2)OCO3)c2ccccc2c1=O`, with 9.19%; and `Cc1ccc(NC(=S)N(CCN(C)C)Cc2cccs2)cc1`, with 6.87%.
In the case of `COC1C(C)=C(C)C(=O)N1Cc1ccc(F)cc1` (centres unmarked), the “hERG current change (%, negative = inhibition) at 1uM” value is 14.7%.
For `Cc1ccc(C(O)c2cccnc2)o1` (centres unmarked) the value was 14.2%; for `Cc1ccc(-n2nnc3c(SCC(=O)NCc4ccco4)ncnc32)cc1`, 5.33%; for `O=C(Nc1ccc(F)cc1)c1ccc2c(=O)n3c(nc2c1)CCCCC3`, -23%.
For `COc1ccc(C2Nc3ccccc3C(=O)N2c2ccccc2)cc1COc1ccccn1` (centres unmarked) the value was 15.1%.
Then `COc1cccc(NC(=O)CSc2nc3scc(C)c3c(=O)[nH]2)c1`, with 10.3%.
Take `COc1ccc(-c2nc3ccc(N4CCN(C)CC4)cc3c(=O)[nH]2)cc1`: the “hERG current change (%, negative = inhibition) at 1uM” value is 11.5%.
Then `CC(NC(=O)COC(=O)c1ccc2c(c1)S(=O)(=O)N=C1CCCCCN12)C12CC3CC(CC(C3)C1)C2` (centres unmarked), with 0.02%; and `CC(=O)N1CCC(C(=O)OCc2ccccc2F)(c2ccccc2)CC1`, with 13.3%; and `Cc1ccn2c(=O)nc(SCC(=O)NCc3ccc(F)cc3)nc2c1`, with 23.1%.
Then `CC1CCCCN1Cc1ccc(N)cc1` (centres unmarked), with 16%; and `Oc1ccccc1Oc1ncc(Br)c(Cl)n1`, with 15.2%.
In the case of `Cc1ccc2c(c1)CC1(CN2C)C(=O)NC(=O)N(CCc2ccccc2)C1=O` (centres unmarked), the “hERG current change (%, negative = inhibition) at 1uM” value is given as -4.16%.
For `COc1ccc(O[C@H]2C=C[C@@H](c3ccccc3)O[C@@H]2COC(=O)CC/C(C)=N/O[C@H](C)c2cn([C@@H]3COC[C@H]3O)nn2)cc1` the value was 1.7%.
For `CCOC(=O)N1CCC(NC(=O)C2CCCN(S(=O)(=O)c3cccc4nsnc34)C2)CC1` (centres unmarked) the value was 3.51%.
Then `CCCSc1nc(NCc2ccco2)c2c3c(sc2n1)COC(C)(CC)C3` (centres unmarked), with 21.5%.
Turning to `COC1CCCCC1Nc1cc(C)cc(C)c1` (centres unmarked), the “hERG current change (%, negative = inhibition) at 1uM” value came out at 8.22%.
For `CCn1c(C)nc2cc(C(=O)NNC(=S)Nc3ccccc3OC)ccc21` the value was -4.31%; for `Cc1cccc(OP(=O)(Oc2ccccc2)OC(c2ccccc2)C(F)(F)F)c1` (centres unmarked), 6.5%; for `CC(=O)Nc1ccc(N2CC(C)(C)C2=O)cc1`, 1.36%.
For `CC(=O)c1sc(Nc2cccc3ccccc23)nc1C.Cl` the value was 11.5%; for `Cc1cc(=O)[nH]c2c(C)cc(S(=O)(=O)N3CCCCC3)cc12`, 7.68%; for `CCc1nn(CC(=O)NCCCN2CCN(CC)CC2)c(=O)c2cc3occc3n12`, 16.3%.
Then `O=C(Nc1ccnn1C1CCN(Cc2ccc(C#CCCO)cc2)CC1)c1cccc(F)c1`, with -37.5%; and `COc1ccccc1NC(=O)Cn1c(CN2CCCCC2)nc2ccccc2c1=O`, with 6.37%; and `CC(=O)c1[nH]c(C)c(C(C)=O)c1C`, with 10.4%.
Regarding `Cc1ccc(C)c(CSC2=NCCN2S(=O)(=O)c2ccccc2)c1`, the “hERG current change (%, negative = inhibition) at 1uM” value amounted to 7.31%.
Then `COc1ccc(NC2=NCC(=O)N2c2ccccc2F)c(OC)c1.Cl`, with 6.07%; and `CCOCCCNC(=O)Cc1cc(=O)[nH]c(=O)[nH]1`, with 4.28%; and `COc1cccc(C2NC(=O)c3ccccc3O2)c1OC` (centres unmarked), with 14.2%.
For `S=C(Nc1cccc(Cl)c1)N1CCN(Cc2ccccc2)CC1` the value was 3.98%; for `CCC(C(=O)Nc1cccc(C(=O)O)c1)c1ccccc1` (centres unmarked), 7.48%.
Then `C=CCN(C(=O)Cc1cccs1)c1nc(-c2ccc(S(C)(=O)=O)cc2)cs1`, with 15.5%.
